Sequences with one replicate were seen in a single cluster, so their values are uncertain.
What follows are sequences tested on ATP (assay: switch fluorescence ratio, 500 uM ATP over buffer (Cy3 cluster intensity, sum of 5 cycles each) (fold (ratio)); higher = stronger signal-on switching upon ATP binding; sequences stand for … in TCGTCGGCAGCGTCAGATGTGTATAAGAGACAGTTTTTTTTTTTTTTTTTTTTTTTTT…TC). Conditions: aptamer strand: ATP DNA aptamer (quencher-CACCTGGGGGAGTATTGCGGAGGAAGG + anchor), 100 nM annealed; ATP concentration: 500 uM; one replicate.
Procedure, shortened: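 Per cluster, summed Cy3 intensity from the target cycles was divided by that from the buffer cycles to give the fluorescence ratio, then averaged per switch-domain sequence. Clusters outside 100-1000 RFU were excluded. The Cy3-labelled switching-strand clusters, on a modified Illumina MiSeq flow-cell, were annealed to 100 nM quencher-labelled ATP aptamer and imaged in selection buffer, then after 15 min with 500 uM ATP at 22 °C, for five cycles with NaOH stripping and re-annealing between them.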
For TGGAACTGCG, the switch fluorescence ratio was 0.984. In the case of TGGAACTTCT, the switch fluorescence ratio is reported as 0.972. For TGGAATAGTA, the switch fluorescence ratio was 1.03. TGGACATTCG was tested, and the switch fluorescence ratio was 0.981. With TGGACCCTTT the switch fluorescence ratio was 1.02. Sequence TGGACGGCGA has a switch fluorescence ratio of 1.15. TGGACGGTGG was tested, and the switch fluorescence ratio was 0.969. TGGACGTAGC showed a switch fluorescence ratio of 1.07. TGGACGTATA gave a switch fluorescence ratio of 1.32. TGGACTCGCA was tested, and the switch fluorescence ratio was 1.15. TGGACTGGCT was tested, and the switch fluorescence ratio was 1.04. With TGGACTTTCT the switch fluorescence ratio was 1.01. TGGAGAAAAA showed a switch fluorescence ratio of 1.1. TGGAGAGTGG was tested, and the switch fluorescence ratio was 0.967. TGGAGGTTA showed a switch fluorescence ratio of 0.983. TGGAGTGGT was tested, and the switch fluorescence ratio was 0.978. Sequence TGGATGCCAG has a switch fluorescence ratio of 0.993. In the case of TGGATGGCGG, the switch fluorescence ratio is reported as 1.07. TGGATGTGAA was tested, and the switch fluorescence ratio was 0.98. Work on TGGATTACGA yielded a switch fluorescence ratio of 1.01. TGGATTAGTG was tested, and the switch fluorescence ratio was 0.973. TGGATTCCGG gave a switch fluorescence ratio of 1.03. In the case of TGGATTT, the switch fluorescence ratio is reported as 1.01. TGGATTTTGT was tested, and the switch fluorescence ratio was 0.994. Work on TGGCAAAGAT yielded a switch fluorescence ratio of 0.984. TGGCAACGCA gave a switch fluorescence ratio of 0.972. TGGCAACTTG was tested, and the switch fluorescence ratio was 1.06. TGGCACTAGT showed a switch fluorescence ratio of 0.972. TGGCACTGGG gave a switch fluorescence ratio of 1.04. Work on TGGCAGCCTT yielded a switch fluorescence ratio of 0.999. TGGCAGCTTA showed a switch fluorescence ratio of 1.02. TGGCAGGAGA showed a switch fluorescence ratio of 1.05. TGGCAGGGGA was tested, and the switch fluorescence ratio was 1.02. Work on TGGCAGTCGT yielded a switch fluorescence ratio of 0.942. For TGGCATCTCA, the switch fluorescence ratio was 1.03. With TGGCATTGTT the switch fluorescence ratio was 0.981. For TGGCCAAAA, the switch fluorescence ratio was 0.982. TGGCCAGTCG showed a switch fluorescence ratio of 1. Work on TGGCCCAGTT yielded a switch fluorescence ratio of 0.979. TGGCCCCGGA gave a switch fluorescence ratio of 1.41. Sequence TGGCCGCGAA has a switch fluorescence ratio of 1.21. With TGGCCGGGAA the switch fluorescence ratio was 1.08. With TGGCGAACG the switch fluorescence ratio was 0.978. TGGCGCGA showed a switch fluorescence ratio of 1.04. With TGGCGCTAGA the switch fluorescence ratio was 1.01. With TGGCGGAATG the switch fluorescence ratio was 0.975. TGGCGGCAGG showed a switch fluorescence ratio of 1.04. In the case of TGGCGGTGCG, the switch fluorescence ratio is reported as 1. TGGCGTCGT was tested, and the switch fluorescence ratio was 0.958. TGGCGTCTAT gave a switch fluorescence ratio of 1.06. TGGCGTGAAC showed a switch fluorescence ratio of 0.996. For TGGCTAAGCA, the switch fluorescence ratio was 1.01. With TGGCTATACG the switch fluorescence ratio was 1.1. Sequence TGGCTCCCC has a switch fluorescence ratio of 1.23. TGGGAAAGTG was tested, and the switch fluorescence ratio was 0.98. TGGGAACTTA showed a switch fluorescence ratio of 0.985. Sequence TGGGAAGTGC has a switch fluorescence ratio of 1.01. TGGGACCAC was tested, and the switch fluorescence ratio was 0.979. Work on TGGGACGAGC yielded a switch fluorescence ratio of 1.03. Work on TGGGACGCGT yielded a switch fluorescence ratio of 1.03. With TGGGACGGAT the switch fluorescence ratio was 1.03. Sequence TGGGACTGCA has a switch fluorescence ratio of 1.03. Work on TGGGAGAACA yielded a switch fluorescence ratio of 0.991. In the case of TGGGAGACCG, the switch fluorescence ratio is reported as 1.03. TGGGAGACTC gave a switch fluorescence ratio of 1.01. With TGGGAGATA the switch fluorescence ratio was 0.996. In the case of TGGGAGGCTA, the switch fluorescence ratio is reported as 0.977. TGGGATGAGA was tested, and the switch fluorescence ratio was 1.01. Sequence TGGGATGCCC has a switch fluorescence ratio of 0.992. TGGGATGGT gave a switch fluorescence ratio of 1. TGGGATTTAC was tested, and the switch fluorescence ratio was 1.02. TGGGCAAAT was tested, and the switch fluorescence ratio was 1.02. TGGGCAATCT was tested, and the switch fluorescence ratio was 1.27. For TGGGCAGAGT, the switch fluorescence ratio was 0.975. With TGGGCATCTT the switch fluorescence ratio was 1.03. TGGGCCATTA gave a switch fluorescence ratio of 0.973. Sequence TGGGCCATTC has a switch fluorescence ratio of 1.01. Sequence TGGGCCGGAG has a switch fluorescence ratio of 1.01. With TGGGCCGTCG the switch fluorescence ratio was 1.11. With TGGGCGGAGG the switch fluorescence ratio was 0.962. In the case of TGGGCGGCCG, the switch fluorescence ratio is reported as 1.02. With TGGGCGGTT the switch fluorescence ratio was 1.1. For TGGGCGTCA, the switch fluorescence ratio was 1.02. Work on TGGGCGTTAC yielded a switch fluorescence ratio of 1.05. For TGGGCTAGGA, the switch fluorescence ratio was 1.01. For TGGGCTTGGC, the switch fluorescence ratio was 0.967. Work on TGGGGAGGT yielded a switch fluorescence ratio of 0.988. TGGGGCACA gave a switch fluorescence ratio of 1.02. TGGGGCTCCT was tested, and the switch fluorescence ratio was 1.01. TGGGGGCGCT was tested, and the switch fluorescence ratio was 1.01. Work on TGGGGTATGC yielded a switch fluorescence ratio of 0.993. Sequence TGGGGTGCTT has a switch fluorescence ratio of 0.999. In the case of TGGGGTTGA, the switch fluorescence ratio is reported as 1.06. Work on TGGGTAACCC yielded a switch fluorescence ratio of 1.02. Sequence TGGGTACGTT has a switch fluorescence ratio of 0.944. For TGGGTATCGA, the switch fluorescence ratio was 0.995. TGGGTCACAT showed a switch fluorescence ratio of 1.02. With TGGGTCTAAA the switch fluorescence ratio was 0.977. In the case of TGGGTGATCA, the switch fluorescence ratio is reported as 1.08. With TGGGTGCTTG the switch fluorescence ratio was 1.01. Sequence TGGGTGGCCA has a switch fluorescence ratio of 1.03. For TGGGTGGGAG, the switch fluorescence ratio was 0.987. TGGGTGT gave a switch fluorescence ratio of 1.08. With TGGGTGTATT the switch fluorescence ratio was 0.981. Sequence TGGGTTAGT has a switch fluorescence ratio of 0.967. With TGGGTTATTC the switch fluorescence ratio was 1.04. Sequence TGGGTTGCCC has a switch fluorescence ratio of 1.01. TGGGTTGCCT gave a switch fluorescence ratio of 0.95. TGGGTTTCGG was tested, and the switch fluorescence ratio was 0.97. With TGGTAAACTT the switch fluorescence ratio was 1.07. Sequence TGGTACATGC has a switch fluorescence ratio of 1.03. Sequence TGGTACGGCG has a switch fluorescence ratio of 0.99. Sequence TGGTAGGCGG has a switch fluorescence ratio of 0.989. Work on TGGTAGTGAA yielded a switch fluorescence ratio of 1. TGGTATCAAA showed a switch fluorescence ratio of 0.995. TGGTATCACG showed a switch fluorescence ratio of 0.971. With TGGTATCGCG the switch fluorescence ratio was 1. Work on TGGTATTAAA yielded a switch fluorescence ratio of 1.03. In the case of TGGTCAAAAT, the switch fluorescence ratio is reported as 0.966. In the case of TGGTCAATAG, the switch fluorescence ratio is reported as 2.19. With TGGTCAGCCA the switch fluorescence ratio was 1.02. TGGTCATCAA gave a switch fluorescence ratio of 0.997. Sequence TGGTCGAGGA has a switch fluorescence ratio of 1.02. Work on TGGTCTATTG yielded a switch fluorescence ratio of 1.02. In the case of TGGTCTGGGT, the switch fluorescence ratio is reported as 0.973. With TGGTGAAGC the switch fluorescence ratio was 1.04. TGGTGACTAA gave a switch fluorescence ratio of 0.943. For TGGTGAGAAT, the switch fluorescence ratio was 1.04. In the case of TGGTGAGCTG, the switch fluorescence ratio is reported as 1.01. TGGTGCAAAA showed a switch fluorescence ratio of 0.991. TGGTGCCCCT gave a switch fluorescence ratio of 0.99. Sequence TGGTGGAAGT has a switch fluorescence ratio of 0.991. Work on TGGTGGGCGT yielded a switch fluorescence ratio of 0.995. TGGTGTACC showed a switch fluorescence ratio of 1.02. In the case of TGGTTAAGCT, the switch fluorescence ratio is reported as 1.01. With TGGTTATCAA the switch fluorescence ratio was 0.999. Work on TGGTTATGAT yielded a switch fluorescence ratio of 0.969. TGGTTCATG showed a switch fluorescence ratio of 0.985. TGGTTCCGGT gave a switch fluorescence ratio of 0.999. TGGTTCTGTC was tested, and the switch fluorescence ratio was 1.01. Work on TGGTTGATGG yielded a switch fluorescence ratio of 1.01. Sequence TGGTTTAAG has a switch fluorescence ratio of 1.02. For TGGTTTGCAT, the switch fluorescence ratio was 1.02. In the case of TGGTTTGCTT, the switch fluorescence ratio is reported as 1.06. In the case of TGGTTTGTTT, the switch fluorescence ratio is reported as 1.02. TGTAAACCAC was tested, and the switch fluorescence ratio was 1.06. Work on TGTAACTTAA yielded a switch fluorescence ratio of 1.07. TGTAATCTAT was tested, and the switch fluorescence ratio was 1.04. In the case of TGTAATGTAC, the switch fluorescence ratio is reported as 2.01. TGTAATTGGA showed a switch fluorescence ratio of 1.02. TGTACACTTT was tested, and the switch fluorescence ratio was 1.02. Sequence TGTACTACAT has a switch fluorescence ratio of 1.08. Work on TGTACTCAGG yielded a switch fluorescence ratio of 1.24. For TGTAGCTGGT, the switch fluorescence ratio was 0.972. With TGTAGGATAT the switch fluorescence ratio was 1.26. Sequence TGTAGGTTGG has a switch fluorescence ratio of 1.07. Work on TGTAGTAGGC yielded a switch fluorescence ratio of 0.938. In the case of TGTATAAGAC, the switch fluorescence ratio is reported as 0.962. With TGTATAATCA the switch fluorescence ratio was 0.989. TGTATATAAG gave a switch fluorescence ratio of 0.995. Sequence TGTATATTAG has a switch fluorescence ratio of 0.967. TGTATGTTTG showed a switch fluorescence ratio of 0.974. TGTATTAGGC gave a switch fluorescence ratio of 0.985. TGTCACATGA was tested, and the switch fluorescence ratio was 0.999. Sequence TGTCACGAC has a switch fluorescence ratio of 1.08. For TGTCAGGGTA, the switch fluorescence ratio was 0.996. Work on TGTCATTAGG yielded a switch fluorescence ratio of 0.979. TGTCCAACAC was tested, and the switch fluorescence ratio was 1.02. TGTCCAGAA gave a switch fluorescence ratio of 1.03. In the case of TGTCCAGGGC, the switch fluorescence ratio is reported as 0.983. With TGTCCTAGGA the switch fluorescence ratio was 1.01. Work on TGTCCTCGGC yielded a switch fluorescence ratio of 1.18. In the case of TGTCCTGATT, the switch fluorescence ratio is reported as 1.01. Sequence TGTCCTTTTT has a switch fluorescence ratio of 0.972. Work on TGTCGACTAG yielded a switch fluorescence ratio of 0.966. With TGTCGGCGGG the switch fluorescence ratio was 0.963. For TGTCGGCTAC, the switch fluorescence ratio was 6.04. Work on TGTCGTCGTT yielded a switch fluorescence ratio of 0.998. TGTCGTTAGT was tested, and the switch fluorescence ratio was 1.03. Sequence TGTCTCATTC has a switch fluorescence ratio of 0.983. For TGTCTGCACA, the switch fluorescence ratio was 1.13. TGTCTGGGC showed a switch fluorescence ratio of 0.962. TGTCTTAAGA was tested, and the switch fluorescence ratio was 0.98. TGTCTTCGTT showed a switch fluorescence ratio of 0.958. TGTCTTGCGG showed a switch fluorescence ratio of 0.996. For TGTGACACCC, the switch fluorescence ratio was 1.14. With TGTGAGATGC the switch fluorescence ratio was 0.937. Work on TGTGAGGGTG yielded a switch fluorescence ratio of 1.13. TGTGAGTCTT showed a switch fluorescence ratio of 0.979. In the case of TGTGATAAGT, the switch fluorescence ratio is reported as 0.955. TGTGATATTT was tested, and the switch fluorescence ratio was 1.02. Work on TGTGATGATA yielded a switch fluorescence ratio of 0.989. For TGTGATTCTG, the switch fluorescence ratio was 0.95. TGTGATTGAA gave a switch fluorescence ratio of 0.971. Sequence TGTGCAAGAT has a switch fluorescence ratio of 1.22. Work on TGTGCAGAGT yielded a switch fluorescence ratio of 0.991. Sequence TGTGCGCATT has a switch fluorescence ratio of 1.02. With TGTGCGCGTT the switch fluorescence ratio was 1.03. Work on TGTGCTTTGG yielded a switch fluorescence ratio of 1. For TGTGGAACGG, the switch fluorescence ratio was 1.02. Sequence TGTGGAGGAG has a switch fluorescence ratio of 0.962.

— the supplement of paper PMC10126150
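Note: ATP exposure 15 min at 22 °C before imaging.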
